Results from PubChem BioAssay AID886 (National Center for Advancing Translational Sciences (NCATS), 2007).
Values joined by “and” are separate entries in the source; they are usually repeats but may differ in a detail not shown here. Equal entries are not always repeated. Screen size: about 73,000 compounds; about 2,500 (3.4%) were called active. This list was built around the results that the source calls inconclusive (neither active nor inactive); the mix of calls is not that of the screen. Calls come from the whole dose curve; as a rule, active = well fitted inhibition curve with a large enough effect; inconclusive = small, poorly fitted or top-dose-only effect; inactive = no such curve, though single readings can be large or run the other way. A potency beside an inconclusive call is a rough fit, not a confirmed value.

The compounds below were run against 3-hydroxyacyl-CoA dehydrogenase type-2 (Homo sapiens) (UniProt Q99714) (assay: qHTS Assay for Inhibitors of HADH2 (Hydroxyacyl-Coenzyme A Dehydrogenase, Type II)). Conditions: recombinant HADH2, NADH fluorescence, beta-hydroxybutyryl-CoA; activity change, negative = inhibition: at 57.1 µM (top of the series).
UniProt Q99714, sequence (Q99714 whole entry, looked up): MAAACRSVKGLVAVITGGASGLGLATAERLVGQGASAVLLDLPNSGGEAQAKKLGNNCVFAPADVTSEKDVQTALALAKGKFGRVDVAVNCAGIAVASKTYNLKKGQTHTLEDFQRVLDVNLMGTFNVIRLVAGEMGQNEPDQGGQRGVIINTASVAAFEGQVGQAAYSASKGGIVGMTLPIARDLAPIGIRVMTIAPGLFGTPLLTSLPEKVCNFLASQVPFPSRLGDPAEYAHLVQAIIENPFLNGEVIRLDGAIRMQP
UniProt Q99714, sequence (Q99714 whole entry, looked up): as above
Procedure, shortened: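 E. coli-expressed His-tagged HADH2 tested at 20 nM in alkaline Tris buffer (pH 9.0); oxidation of 90 uM beta-hydroxybutyryl-CoA with 1 mM NAD+ tracked fluorimetrically for 4 min.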
% is set by controls: 0 for no effect and ±100 for the full control effect; potency is the fitted concentration of half-maximal effect; tags give direction and shape of the fitted curve.
Note: nearly all actives have a fitted effect of over 60% in size.

Row | SMILES | Potency | activity change, negative = inhibition
1 | CCC1(CC)NC(=O)N(CC(=O)Nc2sc3c(c2C(N)=O)CCC3)C1=O | active: 25.1 µM | 
2 | c1nc(NCCN2CCOCC2)c2cc(-c3ccc4c(c3)OCO4)ccc2n1 | inconclusive: 39.8 µM [inhibitor, single point] | 
3 | CC(C)C[C@@H](CC(=O)N[C@@H](CCC(=O)O)CC(=O)O)NC(=O)[C@@H]1CNCC[C@H]1NC(=O)C[C@H](CCCN)NC(=O)C[C@H](Cc1c[nH]c2ccccc12)NC(=O)[C@@H]1CCCC[C@H]1N | inactive | 
4 | O=C(Oc1cccc(Oc2ccccc2)c1)N1CCOCC1 | inconclusive: 0.158 µM [inhibitor, full curve] | 
5 | COc1ccccc1NC(=O)CSc1ccc2nnc(-c3ccncc3)n2n1 | inconclusive: 39.8 µM [inhibitor, single point] | 
6 | C/C=C/Cn1c(SCc2ccc(Cl)cc2)nc2c1c(=O)[nH]c(=O)n2C | inconclusive: 20 µM [inhibitor, single point] | 
7 | COCCNc1cc(-c2ccccc2C(F)(F)F)ncn1 | inconclusive: 39.8 µM [inhibitor, single point] | 
8 | O=C(O)c1ccccc1C(=O)Nc1n[nH]c(=S)s1 | active: 3.16 µM | 
9 | CCN(CC)CCn1c(-c2ccccc2)nc2c(NCCOC)nc(C)nc21 | inconclusive: 39.8 µM [inhibitor, single point] | 
10 | CC(C)C(NS(=O)(=O)c1ccc2c3c(cccc13)C(=O)N2)C(=O)O (configuration not stated) | active: 25.1 µM | 
11 | N=C(N)SC(c1ccccc1)c1ccccc1 |  | inactive: 5.13% [at 11.4 µM]
12 | O=C(c1ccc(N2CCCCS2(=O)=O)cc1)N1CCN(c2ccc(N3CCOCC3)nn2)CC1 | inconclusive: 12.6 µM [inhibitor, partial curve] | 
13 | Cn1c(C(=O)N2CCN(c3ccccc3F)CC2)cc2c(=O)n(C)c3ccccc3c21 | inconclusive: 39.8 µM [inhibitor, single point] | 
14 | N[C@@H]1CONC1=O | inconclusive: 39.8 µM [inhibitor, single point] | 
15 | Cn1nc(-c2ccc(N3CCOCC3)c(NC(=O)COc3ccccc3)c2)c2ccccc2c1=O | inconclusive: 39.8 µM [inhibitor, single point] | 
16 | COc1ccc(N2C(=O)CSC23CCCCC3)cc1 | inactive | 
17 | Cc1cccnc1NC(=O)c1ccc2nc(N)sc2c1 | inconclusive: 39.8 µM [inhibitor, single point] | 
18 | COc1ccc(C2CC(=O)N3CN(c4ccc(C)c(Cl)c4)CSC3=C2C#N)cc1OC (configuration not stated) | inconclusive: 0.794 µM [inhibitor, full curve, poor fit] | 
19 | COc1ncc2nc(-c3ccccc3)c(=O)n(C[C@H]3CCCO3)c2n1 | active: 25.1 µM | 
20 | Cc1c(Cc2ccccc2)c(=O)oc2cc(OCc3nn[nH]n3)ccc12 | active: 31.6 µM | 
21 | CC(C)(C)S(=O)(=O)c1ccc2nc3c(n2c1)CCCC3 | inconclusive: 39.8 µM [inhibitor, single point] | 
22 | N#Cc1c(-c2ccccc2)cc(-c2ccco2)c(C#N)c1N | active: 25.1 µM | 
23 | COC(=O)C(C)Sc1nc2c(c(=O)n(C)c(=O)n2C)n1Cc1cccc(C)c1 (configuration not stated) | inconclusive: 31.6 µM [inhibitor, single point] | 
24 | CSc1ccccc1NC(=O)c1c(C)noc1C | active: 25.1 µM | 

Row | SMILES | Potency | activity change, negative = inhibition
25 | COc1ccc(NC2SC(=O)N(CC(=O)O)C2=O)cc1 (configuration not stated) | inconclusive: 25.1 µM [inhibitor, single point] | 
26 | Cc1ccc(S(=O)(=O)NCCCNC(=O)N2CCOCC2)cc1 | inconclusive: 5.01 µM [inhibitor, single point] | 
27 | O=c1c2c3c(sc2ncn1/N=C/c1ccco1)CCCC3 | inactive | 
28 | [N-]=[N+]=CC(=O)CC(c1ccccc1)N1C(=O)c2ccccc2C1=O (configuration not stated) | inconclusive: 39.8 µM [inhibitor, single point] | 
29 | CCn1cnc2cc(NCc3ccc(C)cc3)ccc21 | inconclusive: 39.8 µM [inhibitor, single point] | 
30 | O=C(Cc1c(O)c2ccccc2[nH]c1=O)NC1CCCCCC1 | inactive | 
31 | COc1cccc(CCc2ccccc2OCC[C@@H]2C[C@@H](O)CN2C)c1 | inconclusive: 0.631 µM [inhibitor, partial curve] | 
32 | Cc1csc2ncc(C(=O)NCc3ccco3)c(=O)n12 | active: 31.6 µM | 
33 | O=C1[C@H]2[C@H]3[C@H](O)[C@H](O)C/C(=N/OCc4ccccc4)[C@H]3CC[C@@H]2C(=O)N1Cc1ccc2c(c1)OCO2 |  | inactive: -5.06% [at 11.4 µM]
34 | CC(C)(C)c1cc(CN2CCN(CCC#N)CC2)cc(C(C)(C)C)c1O | inconclusive: 1.26 µM [inhibitor, full curve, poor fit] | 
35 | Cn1c(-c2ccco2)nc2cc3ccccc3cc21 | active: 31.6 µM | 
36 | COc1ccc(C2NC(=O)NC3=C2CCc2ccccc23)cc1 (configuration not stated) | inconclusive: 31.6 µM [inhibitor, single point] | 
37 | O=C(CSc1ccc2nnc(-c3cccnc3)n2n1)NCc1ccc2c(c1)OCO2 | inconclusive: 31.6 µM [inhibitor, single point] | 
38 | O=C(CSc1nnc(-c2cccs2)o1)N1CCCc2ccccc21 | inactive | 
39 | O=C(CSc1nnc(CNC(=O)c2ccccc2F)o1)c1ccc(Cl)cc1 | inconclusive: 20 µM [inhibitor, partial curve] | 
40 | O=S(=O)(O)c1cc(O)c2c(N=Cc3ccccc3O)cc(S(=O)(=O)O)cc2c1 | active: 2 µM | 
41 | CC1=CC=CC2=NC(=O)CC(C)(C(=O)N(CC(=O)NC(C)C)C3CCCC3)N12 (configuration not stated) | active: 31.6 µM | 
42 | O=C(O)/C=C/c1ccc(O)c(O)c1 | active: 2 µM | 
43 | COC(=O)C1=C(C)N(C)C(C)=C(C(=O)OC)C1c1ccsc1 | inactive | 
44 | CCN(CC(=O)NCc1ccc(F)cc1)CC(O)COCc1cccc(OC)c1 (configuration not stated) | inactive | 
45 | Nn1c(-c2cccs2)nc2sc3c(c2c1=O)CCCC3 | inconclusive: 12.6 µM [inhibitor, partial curve] | 
46 | CCN(CCNC(=O)Cn1c(=O)sc2ccccc21)c1ccccc1 | inactive | 
47 | Oc1ccc(C=NCC2COc3ccccc3O2)cc1 (configuration not stated) | inconclusive: 3.98 µM [inhibitor, partial curve] | 
48 | c1ccc(N2CCN(c3nc4ccccc4n4nnnc34)CC2)cc1 | inactive | 

Row | SMILES | Potency | activity change, negative = inhibition
49 | COc1ccccc1Oc1coc2cc(O)ccc2c1=O | inconclusive: 39.8 µM [inhibitor, single point] | 
50 | Cc1cccc(NC(=O)C(NS(=O)(=O)c2ccc3c(c2)CCC(=O)N3)c2ccccc2)n1 (configuration not stated) | inconclusive: 3.98 µM [inhibitor, full curve] | 
51 | O=C(c1cccc(Cl)c1)N(Cc1cccs1)C1CCS(=O)(=O)C1 (configuration not stated) | inconclusive: 7.94 µM [inhibitor, single point] | 
52 | CCN1CCN(CCCNC(=O)c2cn(CCOC)c(=O)c3c2c2ccccc2n3C)CC1 | inconclusive: 25.1 µM [inhibitor, single point] | 
53 | O=C(Oc1ccc2c(=O)c(Cl)coc2c1)c1ccncc1 | inactive | 
54 | N[C@@H](Cc1c[nH]c2ccc(O)cc12)C(=O)O | inconclusive: 39.8 µM [inhibitor, single point] and inconclusive: 31.6 µM [inhibitor, partial curve] | 
55 | COc1cc(-c2nnc(COc3ccc4cc(Br)ccc4c3)o2)cc(OC)c1OC | inactive | 
56 | COc1ccccc1N1CCN(C(=O)CSc2nc(-c3ccccc3)cc(=O)[nH]2)CC1 | inconclusive: 6.31 µM [inhibitor, single point] | 
57 | Cn1nc(-c2ccc(N3CCCCC3)c(NC(=O)c3ccco3)c2)c2ccccc2c1=O | inconclusive: 39.8 µM [inhibitor, single point] | 
58 | Cc1cccc(-n2c(=O)[nH]c3c(C(N)=O)nc(C(C)C)nc32)c1 | active: 12.6 µM | 
59 | COC(=O)CC1Sc2ccccc2NC1=O (configuration not stated) | inconclusive: 31.6 µM [inhibitor, single point] | 
60 | N#CCCn1c(=O)c(-c2cccc(C#N)c2)nc2cnc(Oc3cccc(Cl)c3)nc21 | inconclusive: 31.6 µM [inhibitor, single point] | 
61 | Cc1ccc(-c2oc3ncnc(N)c3c2-c2ccc(C)cc2)cc1 | active: 31.6 µM | 
62 | O=C(c1ccncc1)N1CCC2(CCCN(Cc3ccncc3)C2)CC1 | inactive | 
63 | Cc1cccc2cc(CN(Cc3ccco3)C(=O)c3cccs3)c(=O)[nH]c12 | inconclusive: 39.8 µM [inhibitor, single point] | 
64 | CCC(C)[C@@H](C(=O)Nc1ccc(OC)c(OC)c1)N1Cc2ccccc2C1=O (some centres not stated) | inactive | 
65 | C=CCSc1nc2c(c(=O)[nH]c(=O)n2C)n1C(C)C | inconclusive: 31.6 µM [inhibitor, partial curve] | 
66 | O=c1oc2c3c4c(cc2s1)CCCN4CCC3 | active: 2.51 µM | 
67 | O=C(CSc1nc2ccccc2s1)Nc1ncccn1 | inconclusive: 39.8 µM [inhibitor, single point] | 
68 | Cc1cc(NC(=O)CSc2nnc3c(C)cc4cc5c(cc4n23)OCO5)no1 | inconclusive: 25.1 µM [inhibitor, single point] | 
69 | COC(=O)c1cc2c(ccn2-c2ccc(F)cc2)n1CC(=O)N1CCN(C(=O)c2ccco2)CC1 | inconclusive: 39.8 µM [inhibitor, single point] | 
70 | CSc1nc(SCC(=O)NCc2ccco2)c2c3c(sc2n1)CN(C)CC3 | inconclusive: 15.8 µM [inhibitor, partial curve] | 
71 | C[C@@]12C=CC(=O)C=C1CC[C@H]1[C@H]3CC[C@](O)(C(=O)CO)[C@]3(C)CC(=O)[C@@H]12 | inactive | 
72 | Cc1ccccc1N1C(=O)c2sc3nc4c(c(=O)n3c2C1=O)CCC4 | active: 25.1 µM | 
